From PMC4336329 (PLoS ONE, 2015)
The campaign covered roughly 310,000 compounds. About 2,200 (0.71%) showed an effect of 50% or more. Effects have a minus sign here. The list shows a part of the results.

These compounds were tested against human ether-à-go-go-related gene (hERG) potassium channel (human, UniProt Q12809) (assay: primary screen, population patch clamp on CHO cells stably expressing hERG).
Sequence of human ether-à-go-go-related gene (hERG) potassium channel (Q12809 whole entry, looked up): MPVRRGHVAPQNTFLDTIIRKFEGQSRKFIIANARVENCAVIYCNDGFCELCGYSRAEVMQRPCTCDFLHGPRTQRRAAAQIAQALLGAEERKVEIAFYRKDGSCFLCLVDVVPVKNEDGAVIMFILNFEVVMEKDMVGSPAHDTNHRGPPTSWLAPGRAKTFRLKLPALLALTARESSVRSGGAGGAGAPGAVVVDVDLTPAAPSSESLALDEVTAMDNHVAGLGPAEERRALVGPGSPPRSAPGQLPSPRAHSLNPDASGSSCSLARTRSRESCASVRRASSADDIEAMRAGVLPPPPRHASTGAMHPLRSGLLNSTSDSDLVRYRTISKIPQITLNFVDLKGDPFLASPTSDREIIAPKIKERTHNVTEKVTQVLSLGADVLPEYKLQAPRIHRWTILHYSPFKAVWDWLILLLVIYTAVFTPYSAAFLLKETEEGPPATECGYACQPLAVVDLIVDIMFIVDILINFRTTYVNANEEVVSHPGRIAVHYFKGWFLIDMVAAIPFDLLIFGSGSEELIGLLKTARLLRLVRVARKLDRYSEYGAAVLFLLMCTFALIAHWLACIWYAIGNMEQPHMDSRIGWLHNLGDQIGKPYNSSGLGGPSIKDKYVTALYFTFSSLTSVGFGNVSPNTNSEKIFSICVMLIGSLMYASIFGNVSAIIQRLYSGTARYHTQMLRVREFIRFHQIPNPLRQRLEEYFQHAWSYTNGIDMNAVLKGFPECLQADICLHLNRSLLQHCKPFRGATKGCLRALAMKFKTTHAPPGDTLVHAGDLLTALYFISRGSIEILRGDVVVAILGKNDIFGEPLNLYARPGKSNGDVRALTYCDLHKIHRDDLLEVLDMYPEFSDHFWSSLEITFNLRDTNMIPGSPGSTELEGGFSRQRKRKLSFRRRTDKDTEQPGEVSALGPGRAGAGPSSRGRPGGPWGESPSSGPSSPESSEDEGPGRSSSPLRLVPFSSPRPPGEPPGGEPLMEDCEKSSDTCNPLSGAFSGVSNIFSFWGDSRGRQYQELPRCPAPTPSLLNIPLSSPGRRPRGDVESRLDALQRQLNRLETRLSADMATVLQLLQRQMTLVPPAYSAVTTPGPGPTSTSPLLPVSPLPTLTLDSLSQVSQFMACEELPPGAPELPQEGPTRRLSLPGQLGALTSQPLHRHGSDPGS

Structure (SMILES)	hERG current change (%, negative = inhibition) at 1uM [%]
Cc1cc(C(=O)COC(=O)C2COc3ccccc3O2)c(C)n1CC1CCCO1 (stereo not shown)	-4.57
CCOC(=O)c1c(C)[nH]c(C(=O)CN2C(=O)NC3(CCCC3)C2=O)c1C	9.05
COc1ccc(C(=O)NCc2nnc(SCC(=O)Nc3ccccc3OC)n2C)cc1	9.14
CCOC(=O)c1cnc(N2CCOCC2)[nH]c1=O	17.9
CCNC(=O)/N=C1/NC(=O)C(C(C)C)O1 (stereo not shown)	20.5
COc1ccc(C[C@@H]2CN3C(=NC[C@@H]3Cc3ccc(O)cc3)N2C[C@H](C)NC(=O)CCC2CCCCC2)cc1	-64.6
CC(C(=O)N1CCC2(CC1)OCCO2)C1Sc2ccccc2NC1=O (stereo not shown)	0.324
Cc1occc1-c1n[nH]c(=S)n1C	7.51
Cc1ccccc1SCC(=O)N/N=C/c1ccc(F)cc1	13.4
COc1cc(/C=N/Nc2nc3ccccc3[nH]2)cc(Br)c1OCC(=O)N(C)C	0.153
CN(C)C(=O)c1nc2ccc(Cl)cn2c1CN1CCCC(OCc2ccccc2)C1 (stereo not shown)	-2.9
COc1ccc(Br)cc1/C=N/N1C(=O)CSC1=S	14.1
CCn1c(C)nc2cc(C(=O)N/N=C/c3ccccc3C)ccc21	5.3
Clc1ccccc1CSc1nnc(/C=C/c2ccccc2)o1	10.5
C=CCn1c(CNc2ccccc2)nnc1SCC(=O)N/N=C/c1ccccc1O	10
CC(C)(C)[C@H]1C=C(C(=O)NCc2ccccc2)O[C@@H](OCCCCO)C1	16.3
Cc1noc(C(C)C)c1C(=O)Nc1ccc(-c2nnc3n2CCCCC3)cc1	11.4
CN(C)/C=C/C(=O)c1ccc(Cl)s1	-32.5
O=C(CSc1nnc2ccccn12)c1ccc(OC(F)F)cc1OC(F)F	-36.3
O=C1CCC(=O)N1c1ccccc1-c1ccccc1	12.5
Cc1ccc(NC(=O)COC(=O)CNC(=O)c2ccc(Br)cc2)c(C)c1	2.66
OCCC1CN(Cc2ccccc2OC2CCCC2)CCN1Cc1ccsc1 (stereo not shown)	-23.7

Structure (SMILES)	hERG current change (%, negative = inhibition) at 1uM [%]
Cc1ccc(N(Cc2cc3ccccc3[nH]c2=O)S(=O)(=O)c2ccccc2)cc1	-1.04
COC(=O)CN1C(=O)[C@H]2[C@@H](c3ccc(C)o3)N3C(=O)CN(Cc4ccccc4)C(=O)[C@@]3(C)[C@H]2C1=O	5.87
COc1cc(C(=O)NCC(c2cccs2)N2CCOCC2)c([N+](=O)[O-])cc1OC (stereo not shown)	15.5
Cc1nc(-c2ccc(NC(=O)C(C)(C)C)cc2)c(-c2ccccc2)o1	18.3
O=C(COc1cccc(NC(=O)c2ccco2)c1)c1ccccc1	-9.91
CN(Cc1ccccc1)C(=O)COC(=O)c1cc(S(=O)(=O)N(C)C)ccc1N1CCCC1	9.99
CC1CN(C(=O)N2CCCCC2)CCN1C(=O)N1CCCCC1 (stereo not shown)	12.3
Cc1ccc(N(CC(=O)Nc2cc(Cl)ccc2Oc2ccccc2)S(C)(=O)=O)c(C)c1	-0.252
NC(=O)CC(NC(=O)Cc1cccc2ccccc12)c1ccc(NC2CCCCC2)c([N+](=O)[O-])c1 (stereo not shown)	6.95
CCN(CC(=O)NC1CCS(=O)(=O)C1)S(=O)(=O)c1cc(C)ccc1C (stereo not shown)	11.1
CCC(C)(C)n1nnnc1C(c1ccc(OC)c(OC)c1)N1CCN(c2ccc(OC)cc2)CC1.Cl (stereo not shown)	1.26
COc1ccc(/C=N/NC(=O)c2nnn(-c3nonc3N)c2-c2cccc(OC)c2)cc1	19.7
CC(=O)C1=C(O)CC(C)(C)CC1=NCCc1nc2ccccc2[nH]1	2.13
C#CCOCCOCCOCCNc1nc(N2CCOCC2)nc(N2CCN(C(=O)[C@H](Cc3cc4ccccc4[nH]3)n3cc([C@@H](N)Cc4ccc(O)cc4)nn3)CC2)n1.Cl	4.76
CC1(C)NC(=O)N(CC(=O)OCC(=O)Nc2cc(S(=O)(=O)N3CCCCC3)ccc2Cl)C1=O	4.63
O=C(COc1ccc(Cl)cc1)N1CCN(c2ccc([N+](=O)[O-])c(N3CCOCC3)c2)CC1	-4.68
COc1cccc(-n2c([S-])c(C(=O)Nc3ccc(C(F)(F)F)cc3)[n+]3ccccc23)c1	14
CC(C)(C)OC(=O)N[C@@H](C(=O)OC(C)(C)C)c1ccc2ccccc2c1	13.8
Cc1ccc(S(=O)(=O)/N=C2/NC(=O)/C(=C/c3cccnc3)S2)cc1	4.38
CCOC(=O)C(O)(c1ccc(NC(=O)NC2CCCCC2)cc1)C(F)(F)F (stereo not shown)	10.2
Cc1ccc(C(=O)N2CCN(S(=O)(=O)c3ccc(C(C)C)cc3)CC2)s1	0.414
